{"source": "the supplement of paper PMC11417369", "note": "± gives the standard deviation of the averaged measurements. The list shows a part of the results.", "data": [{"system": "PfAP2-LT AP2 domain (GST-tagged)", "assay": "gcPBM binding intensity (ln(normalized median fluorescence intensity)); higher = stronger DNA binding", "procedure,_shortened": "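An Agilent 4 × 180k array of primer-extended double-stranded 36-bp intergenic genomic probes, with negative controls, was incubated for 1 h with GST-tagged P. falciparum DNA-binding domains expressed in E. coli. Alexa488 anti-GST antibody detected bound protein, scanned at 488 nm. Binding intensity is the highest Masliner-normalised natural-log median intensity across replicate spots of either probe orientation.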", "values": [{"sequence": "AGAAAAATTATTTTGCGTACATATTTACAATAAAAA [XGTACX_site2144]", "gcPBM binding intensity (ln)": "8.43 ± 0.57"}, {"sequence": "AACAAATATATATGTAGTACATGTTGTAGATAATTT [XGTACX_site24]", "gcPBM binding intensity (ln)": "9.22 ± 0.45"}, {"sequence": "TTTTTTTTTTTAAATTCACACAATATATAAATATTG [CACACA_site5201]", "gcPBM binding intensity (ln)": "8.44 ± 0.49"}, {"sequence": "TAAAGCATATTATAAACACACACTGTATAAAGATAT [CACACA_site296]", "gcPBM binding intensity (ln)": "9.18 ± 0.35"}, {"sequence": "TTTAAAATATATAGTACACACGTGAACACAAATACA [CACACA_site4392]", "gcPBM binding intensity (ln)": "8.96 ± 0.42"}, {"sequence": "GTACATTATTTATATACACACAAAGAAAAATATACA [CACACA_site3452]", "gcPBM binding intensity (ln)": "9.21 ± 0.25"}, {"sequence": "TATACATATGAAAATACACACATACATACAGATATA [CACACA_site5002]", "gcPBM binding intensity (ln)": "9.24 ± 0.31"}, {"sequence": "AAAAAAAATATAATATGTACATATCTATATATCAAC [XGTACX_site4881]", "gcPBM binding intensity (ln)": "8.8 ± 0.49"}, {"sequence": "TTGTTTTTAATATCGGTGCAATGGAAAGAAAAGAAG [GTGCAC_site9494]", "gcPBM binding intensity (ln)": "8.49 ± 0.49"}, {"sequence": "ATTAAATCGATATATACACACATGTTTGGTATATTC [CACACA_site7285]", "gcPBM binding intensity (ln)": "9.26 ± 0.22"}, {"sequence": "TTAAAATAAAGTAGTGGTACAAAAAAAAAAAAAAAA [XGTACX_site6322]", "gcPBM binding intensity (ln)": "8.49 ± 0.58"}, {"sequence": "TAACCTATAATATTCACACACATATAAATATTATAG [CACACA_site6592]", "gcPBM binding intensity (ln)": "9.03 ± 0.31"}, {"sequence": "AGTAATAGTTTGTGCACACTCAAGTATATCATATAT [CACACA_site4034]", "gcPBM binding intensity (ln)": "9.37 ± 0.38"}, {"sequence": "TTTTACTTAAAACACACACACACAAAAAAAAAAAAA [CACACA_site947]", "gcPBM binding intensity (ln)": "9.46 ± 0.31"}, {"sequence": "TTTTTCAGAAAAGAAACACACATATTTATATTTATA [CACACA_site7167]", "gcPBM binding intensity (ln)": "8.43 ± 0.46"}, {"sequence": "TAAACAAATAAATAAACACACAATATCTGTATTTAT [CACACA_site5978]", "gcPBM binding intensity (ln)": "8.88 ± 0.46"}, {"sequence": "TATATGTATATATATTAACACACAAAAAAAAAAAAA [CACACA_site8534]", "gcPBM binding intensity (ln)": "8.87 ± 0.42"}, {"sequence": "AATTAAATTACTTATACACACATAAAATGGGTGTAT [CACACA_site4703]", "gcPBM binding intensity (ln)": "8.97 ± 0.37"}, {"sequence": "AAAAAAAAAAAAAAGCGTACAAATAAAATATATTTA [XGTACX_site7195]", "gcPBM binding intensity (ln)": "8.52 ± 0.67"}, {"sequence": "CGTATATATAAATACACACACATATATATCTGTAAA [CACACA_site4272]", "gcPBM binding intensity (ln)": "9.56 ± 0.34"}, {"sequence": "TTAATTTATTTATGCACACATATATAATTACCCATA [CACACA_site682]", "gcPBM binding intensity (ln)": "8.96 ± 0.42"}, {"sequence": "TTTTTATATGCGTATTGTACATTATACATATATATA [XGTACX_site6786]", "gcPBM binding intensity (ln)": "8.81 ± 0.38"}, {"sequence": "CCTTTTTTGTTTTATGCACACCATATAACCAAGGCT [CACACA_site7893]", "gcPBM binding intensity (ln)": "9.07 ± 0.5"}, {"sequence": "TAAATGTCCTTATTTGCACACACACCCATAAGAAAT [CACACA_site3185]", "gcPBM binding intensity (ln)": "9.56 ± 0.28"}, {"sequence": "ATGTAATGAAACATTGCACACATATAATAATATAAT [CACACA_site8402]", "gcPBM binding intensity (ln)": "9.31 ± 0.35"}, {"sequence": "TATATATAAAAATATACACACACAAATGTATATATA [CACACA_site7956]", "gcPBM binding intensity (ln)": "9.15 ± 0.33"}, {"sequence": "ATGATGTGCAAGAGTAGTACACAATTTTGGGTTTAT [XGTACX_site501]", "gcPBM binding intensity (ln)": "9.05 ± 0.33"}, {"sequence": "AAACATAAGAAACACACACACATATATATATATATA [CACACA_site3642]", "gcPBM binding intensity (ln)": "10.32 ± 0.064"}, {"sequence": "AACATCAATTTATTTTCTTACATTATACGATTCATG [CACACA_negctrl_site1300]", "gcPBM binding intensity (ln)": "8.71 ± 0.4"}, {"sequence": "TAATTATGCCAACACACACACACACCCAACTAAAAA [CACACA_site8823]", "gcPBM binding intensity (ln)": "9.965 ± 0.092"}, {"sequence": "AAAAAAAAATCAAAATGTACTTATTTTTATAATAAT [XGTACX_site4712]", "gcPBM binding intensity (ln)": "8.33 ± 0.58"}, {"sequence": "AGAATATCAAAATAAAGTACATTTATTATATATATG [XGTACX_site7100]", "gcPBM binding intensity (ln)": "8.61 ± 0.53"}, {"sequence": "TTTTCTCTCAAAAAATGTACATAATATATATATTTT [XGTACX_site4861]", "gcPBM binding intensity (ln)": "8.51 ± 0.48"}, {"sequence": "AAAAAAAAAAAACATACACACATACATACCTATATA [CACACA_site6575]", "gcPBM binding intensity (ln)": "9.33 ± 0.3"}, {"sequence": "ATTCTTATAACAAGAAGTACAAATATATGTATATAT [XGTACX_site4528]", "gcPBM binding intensity (ln)": "8.7 ± 0.43"}, {"sequence": "TATACATCATTTTTCAACAACAAAAAAAAAAAAAAT [CACACA_negctrl_site1185]", "gcPBM binding intensity (ln)": "8.46 ± 0.47"}, {"sequence": "ACGTAAAATAGGGACGCATGCACAAATATTTTTAAA [TGCATGCA_site336]", "gcPBM binding intensity (ln)": "9.24 ± 0.35"}, {"sequence": "ATATATATAAATACAACACACATGTAATATATAAAT [CACACA_site5766]", "gcPBM binding intensity (ln)": "9.3 ± 0.38"}, {"sequence": "CTATATATATATTTCAGTACATATTAAGAATATATA [XGTACX_site4860]", "gcPBM binding intensity (ln)": "8.41 ± 0.42"}, {"sequence": "TAATAATTACAAAGAAGTACATAAAAAAAAATTTAT [XGTACX_site4684]", "gcPBM binding intensity (ln)": "8.6 ± 0.48"}, {"sequence": "TATATAAATATATACACACATACATACATACATATA [CACACA_site3835]", "gcPBM binding intensity (ln)": "9.2 ± 0.33"}, {"sequence": "TTCTAATAAATGTGTTGTACACCTTTAGCAACTATT [XGTACX_site3235]", "gcPBM binding intensity (ln)": "8.87 ± 0.41"}, {"sequence": "TATATATATTTATGCACACAAAATATATTATATAAT [CACACA_site5955]", "gcPBM binding intensity (ln)": "8.88 ± 0.33"}, {"sequence": "AGGAAAAAAGAAAAAACACACATAAATATTTATATA [CACACA_site7446]", "gcPBM binding intensity (ln)": "8.85 ± 0.49"}, {"sequence": "TTATTTATTTATTGTTGTACACAAAATGATTCTTAA [XGTACX_site6480]", "gcPBM binding intensity (ln)": "8.58 ± 0.45"}, {"sequence": "AAACAAAACAAAACATGTACACATTATATATATATA [XGTACX_site3374]", "gcPBM binding intensity (ln)": "9.15 ± 0.4"}, {"sequence": "ATTAATTATATATATACACACACATACACCCAAATA [CACACA_site9126]", "gcPBM binding intensity (ln)": "9.66 ± 0.23"}, {"sequence": "TAAATACTTCGTAAAACACACAAGTAGAAAAAAAAA [CACACA_site360]", "gcPBM binding intensity (ln)": "8.83 ± 0.48"}, {"sequence": "ATAATTAGTTCAATTTTTTTTTTTTTTTTTTTTTTT [CACACA_negctrl_site1371]", "gcPBM binding intensity (ln)": "8.66 ± 0.18"}, {"sequence": "AAAAATATAATATATGCACACATACATACATATATA [CACACA_site7915]", "gcPBM binding intensity (ln)": "8.97 ± 0.39"}, {"sequence": "TAAAAATTAAAACTGGGTACAAATTTATAGATAGCC [XGTACX_site8075]", "gcPBM binding intensity (ln)": "8.86 ± 0.52"}, {"sequence": "AATTTATTAGATAGATGTACATTTTAATAAAAGTAG [XGTACX_site6819]", "gcPBM binding intensity (ln)": "8.51 ± 0.45"}, {"sequence": "CATTAACAAATAAATGCACACATATATATAAATAAT [CACACA_site7892]", "gcPBM binding intensity (ln)": "9.04 ± 0.35"}, {"sequence": "TCCCCTTAATTTAAAACACACAAACAAATAAGTTAG [CACACA_site5973]", "gcPBM binding intensity (ln)": "8.73 ± 0.39"}, {"sequence": "AATATTTTTTTTTAAACATGCATATTTGCATTACCC [TGCATGCA_site437]", "gcPBM binding intensity (ln)": "8.73 ± 0.49"}, {"sequence": "TTTACATTTATGTGCACACATTCCATTTGAAAGTAA [CACACA_site1953]", "gcPBM binding intensity (ln)": "8.9 ± 0.35"}, {"sequence": "CTTATAAAAAAAATTGCACACATATTATACAGGACG [CACACA_site8133]", "gcPBM binding intensity (ln)": "9.04 ± 0.38"}]}]}
